According to PubChem BioAssay AID588855 (National Center for Advancing Translational Sciences (NCATS), 2011):
The whole screen tested about 410,000 compounds, of which about 5,000 (1.2%) were called active. Inconclusive results, whose numbers are uncertain, are shown with a selection of clear calls. The call rests on the fitted dose curve; in most records, active means well fitted inhibition curve with a large enough effect; inconclusive means small, poorly fitted or top-dose-only effect; inactive means no such curve, though single readings can be large or run the other way. A potency beside an inconclusive call is a rough fit, not a confirmed value.
Potency means the concentration at half of the fitted maximal effect; tags describe the fitted curve by direction and shape.

Test: qHTS for Inhibitors of TGF-b; further: nearly all actives have a fitted effect of over 65% in size
Conditions: HepG2 CAGA-GFP TGF-b/SMAD3 reporter, GFP fluorescence, 18 h, TGF-beta stimulated, 500 pg/mL final; series mostly up to 46.1 µM
Procedure, shortened: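 Inhibition was scored as loss of TGF-beta-induced (500 pg/mL final, 18 hours, 37 degrees C) GFP in HEPG2 cells carrying a CAGA-GFP reporter, in DMEM with 1% FBS. Well GFP was summed per cell; Activity was normalised to unstimulated and stimulated DMSO wells, then concentration-response fitting.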
With `Nc1nc(Cl)nc2c1ncn2[C@@H]1O[C@H](CO)[C@@H](O)[C@H]1O` the Potency was inconclusive: 22.4 µM [inhibitor, single point].
For `CN(Cc1ccc(Cl)cc1Cl)C(=O)c1cccc(S(=O)(=O)N2CCN(c3ccccc3)CC2)c1`, the Potency was inconclusive: 7.08 µM [inhibitor, full curve, poor fit].
For `CC(=Cc1ccccc1)C=C1SC(=S)N(CCCC(=O)Nc2ccc(C(=O)O)c(O)c2)C1=O`, the Potency was inconclusive: 2.51 µM [inhibitor, full curve, poor fit].
With `Cc1ccc(CN2CC(=O)N3[C@H]4c5cc(Cl)ccc5OC[C@@H]4[C@H](c4ccccc4)[C@]3(C)C2=O)cc1` the Potency was “inactive”.
For `Cc1ccc(NC(=O)C2=COCCO2)cc1S(=O)(=O)N1CCOCC1`, the Potency was “inactive”.
With `COc1cc(Cl)ccc1OC1(C)CCN(Cc2ccccc2OC(F)F)C1` (stereo not given) the Potency was inconclusive: 14.1 µM [inhibitor, single point].
With `Cc1ccc(CNc2nc(NCC3CC3)nc3ccsc23)c(C)c1` the Potency was inconclusive: 35.5 µM [inhibitor, single point].
In the case of `CC(C)Oc1ccc(CNC(=O)Cn2nc(N3CCN(c4ccccc4)CC3)ccc2=O)cc1`, the Potency is reported as inconclusive: 35.5 µM [inhibitor, single point].
In the case of `CCCCn1c(=N)n(CCOc2ccccc2OC)c2ccccc21`, the Potency is reported as active: 10 µM.
For `Cc1ccc(C)c(NC(=O)C(=O)NCC2CCCN2S(=O)(=O)c2cccs2)c1` (stereo not given), the Potency was inconclusive: 3.16 µM [inhibitor, single point].
In the case of `Cc1ccc2cccc(S(=O)(=O)N3CCCc4ccccc43)c2n1`, the Potency is reported as inconclusive: 35.5 µM [inhibitor, single point].
In the case of `Cc1ccc(C2(c3ccccc3)NC(=O)N(CC(=O)NCc3ccccc3)C2=O)cc1C` (stereo not given), the Potency is reported as active: 11.2 µM.
For `COc1ccccc1NC(=S)N/N=C/c1ccc(O)cc1`, the Potency was inconclusive: 25.1 µM [inhibitor, single point].
For `CCOc1ccc2oc(=O)cc(CN3CCN(c4ccccc4OC)CC3)c2c1`, the Potency was inconclusive: 14.1 µM [inhibitor, partial curve, poor fit].
In the case of `Nn1c(SCC(=O)Nc2ccc3c(c2)OCO3)nnc1-c1ccc(Cl)cc1`, the Potency is reported as inconclusive: 0.112 µM [inhibitor, full curve, poor fit].
With `COc1cc(OC)c(OC)cc1CNCCCSc1nnnn1C` the Potency was “inactive”.
In the case of `CN(C)S(=O)(=O)N1CCc2ccc(NC(=O)c3ccc(C(F)(F)F)cc3)cc2C1`, the Potency is reported as inconclusive: 2.51 µM [inhibitor, full curve].
With `COc1ccc(CN2C(=NC(=O)CCc3ccccc3)SC3CS(=O)(=O)CC32)cc1` (stereo not given) the Potency was inconclusive: 35.5 µM [inhibitor, single point].
With `C=Cc1cnc([N+](=O)[O-])n1C` the Potency was inconclusive: 35.5 µM [inhibitor, partial curve, poor fit].
For `COc1cccc(NC(=O)Cn2c(=O)n(CCc3ccc(OC)c(OC)c3)c(=O)c3ccccc32)c1`, the Potency was inconclusive: 3.16 µM [inhibitor, single point].
For `CCOC(=O)c1c(NC(=O)COc2ccc3ccc(=O)oc3c2)sc(C(=O)N(C)C)c1C`, the Potency was “inactive”.
With `Cn1c(CNC2CCCCC2)c(C#N)c2ccccc21` the Potency was “inactive”.
In the case of `COc1ccc(CCNC(=S)N2CCC(Cc3ccccc3)CC2)cc1OC`, the Potency is reported as inconclusive: 5.01 µM [inhibitor, full curve, poor fit].
With `CCC(=O)Nc1ccc(C(=O)NNC(=O)COc2cc(C)ccc2C)cc1` the Potency was inconclusive: 35.5 µM [inhibitor, partial curve, poor fit].
For `COc1ccccc1COC(=O)CN1C(=O)NC2(CCCCC2C)C1=O` (stereo not given), the Potency was “inactive”.
For `CCCCn1ccnc1C(=O)c1cc(S(=O)(=O)N2CCOCC2)ccc1C`, the Potency was “inactive”.
In the case of `CC(O)c1c(OCc2ccccc2)ncnc1OCc1ccccc1` (stereo not given), the Potency is reported as inconclusive: 12.6 µM [inhibitor, single point].
In the case of `Cc1nc2ccc(S(=O)(=O)NCC(=O)Nc3cccc(F)c3)cc2s1`, the Potency is reported as inconclusive: 5.62 µM [inhibitor, full curve].
In the case of `CCOc1nc(C#N)nc(N2CCOCC2)n1`, the Potency is reported as inconclusive: 5.01 µM [inhibitor, partial curve].
With `Cc1ccc(S(=O)(=O)N2CCN(c3nc(CN4CCCC4)nc4sc(C)c(C)c34)CC2)cc1` the Potency was inconclusive: 35.5 µM [inhibitor, single point].
With `COc1ccc(S(=O)(=O)NCc2ccc(C(=O)N3CCN(Cc4ccccc4)CC3)cc2)cc1` the Potency was inconclusive: 35.5 µM [inhibitor, single point].
For `Cc1ccc(NC(=O)C(=O)NCC2(c3ccccc3)CCCC2)cc1C`, the Potency was inconclusive: 35.5 µM [inhibitor, single point].
For `CC(C)=C1SC(N2CCN(c3cccc(Cl)c3)CC2)=NC1=O`, the Potency was inconclusive: 25.1 µM [inhibitor, single point].
For `CN(CCC#N)C(=O)COC(=O)c1ccc2c(=O)n3c(nc2c1)CCC3`, the Potency was inconclusive: 2.82 µM [inhibitor, partial curve].
With `Cc1ccccc1NC(=O)c1cc2c(=O)n3cccc(C)c3nc2s1` the Potency was inconclusive: 17.8 µM [inhibitor, single point].
With `Cc1ccccc1OCC(=O)Nc1ccc(C)c(S(=O)(=O)N2CCCCCC2)c1` the Potency was inconclusive: 20 µM [inhibitor, single point].
With `CN(C)c1cccc(C(=O)OCCNC(=O)c2cccc(S(=O)(=O)N3CCOCC3)c2)c1` the Potency was “inactive”.
With `CCCCN(CC)C(=O)CCCn1c(=O)c2cccn2c2ccccc21` the Potency was inconclusive: 35.5 µM [inhibitor, partial curve, poor fit].
In the case of `COc1cccc(N2CCN(c3ncnc4c3c(-c3ccccc3)cn4-c3ccc(F)cc3)CC2)c1`, the Potency is reported as “inactive”.
With `CCN(CC)C(=O)c1csc(COCCO)n1` the Potency was “inactive”.
For `Cc1cc(-c2ccc(C)c(S(=O)(=O)NCCCN(Cc3ccccc3)C(C)C)c2)on1`, the Potency was inconclusive: 22.4 µM [inhibitor, partial curve].
In the case of `O=C(NCC(c1ccco1)N1CCCC1)c1cc2ccccc2s1` (stereo not given), the Potency is reported as “inactive”.
For `Cc1cccc(CN2CCC(CNc3ncnc4onc(-c5ccc(Cl)cc5)c34)CC2)c1`, the Potency was inconclusive: 22.4 µM [inhibitor, partial curve, poor fit].
For `CCOC(=O)c1[nH]c2ccc(F)cc2c1NC(=O)CCN1CCOCC1`, the Potency was “inactive”.
With `Cc1cc(C(C)(C)C)oc1C(=O)N(CC(=O)NC1CCCC1)c1ccc(F)cc1` the Potency was inconclusive: 7.94 µM [inhibitor, partial curve].
For `COC(=O)c1cc(NC(=O)c2ccco2)ccc1N1CCOCC1`, the Potency was inconclusive: 5.62 µM [inhibitor, full curve, poor fit].
In the case of `CCCCOc1cccc(C(=O)NC(=S)Nc2ccc(Cl)c(C(=O)O)c2)c1`, the Potency is reported as “inactive”.
For `Cc1nn(-c2ccccc2)c(Cl)c1C(=O)NCc1cccs1`, the Potency was “inactive”.
With `Cc1cc(C)nc(Sc2ncnc3c2oc2ccccc23)n1` the Potency was inconclusive: 28.2 µM [inhibitor, partial curve, poor fit].
For `Clc1cccc2c1CCN(Cc1nc(-c3cnccn3)no1)C2`, the Potency was “inactive”.
With `CCCn1c(CN(C)Cc2ccccc2)nc2c1c(=O)n(C)c(=O)n2C` the Potency was “inactive”.
For `O=C(N/N=C/c1ccc(N2CCOCC2)cc1)C1CC1`, the Potency was “inactive”.
In the case of `COC(=O)C[N+](C)(C)CC#Cc1ccccc1`, the Potency is reported as “inactive”.
For `CCOC(=O)c1c(N)sc(C(O)(C(F)(F)F)C(F)(F)F)c1-c1ccc(F)cc1`, the Potency was inconclusive: 22.4 µM [inhibitor, single point].
With `COc1cc(/C=C/C(=O)c2ccc(C)cc2)ccc1OCC#N` the Potency was inconclusive: 22.4 µM [inhibitor, single point].
With `CC(=O)Nc1cccc(-c2csc(NCc3ccccc3)n2)c1` the Potency was inconclusive: 11.2 µM [inhibitor, partial curve, poor fit].
With `Cc1ccc(CSc2nc3cccnc3n2Cc2ccc(C(=O)NC3CCCCC3)cc2)cc1` the Potency was “inactive”.
For `Cn1cc(S(=O)(=O)N2CCc3ccccc32)cc1C(=O)NC(C)(C)C`, the Potency was inconclusive: 3.98 µM [inhibitor, partial curve, poor fit].
With `CCCn1c(=O)[nH]c2ccccc21` the Potency was inconclusive: 0.631 µM [inhibitor, full curve, poor fit].
In the case of `O=C1NC(=S)N/C1=C\c1cccnc1`, the Potency is reported as inconclusive: 35.5 µM [inhibitor, single point].
With `O=C(CSc1oc(-c2ccc(F)cc2)nc1S(=O)(=O)c1ccc(Br)cc1)NC1CCCCC1` the Potency was “inactive”.
For `CCOC(=O)C1=C(C)NC(C)=C(C(=O)OCC)C1c1ccc(Br)o1`, the Potency was inconclusive: 6.31 µM [inhibitor, single point].
For `Cc1cc(S(=O)(=O)N2CCOCC2)ccc1F`, the Potency was “inactive”.
In the case of `O=S(=O)(CCN1CCSCC1)c1ccc(Cl)cc1`, the Potency is reported as “inactive”.
For `CCn1ncc(Br)c1C(=O)Nc1nccs1`, the Potency was “inactive”.
In the case of `CCCCOc1ccc(C(=O)NCC(=O)NCC(=O)OCC)cc1`, the Potency is reported as “inactive”.
In the case of `O=C(NCC(c1cccnc1)N1CCN(c2ccc(F)cc2)CC1)c1cccc(Cl)c1` (stereo not given), the Potency is reported as inconclusive: 11.2 µM [inhibitor, single point].
With `CC(C)c1ccc(-c2noc(C3CCCN(C(=O)c4ccc(F)cc4F)C3)n2)cc1` (stereo not given) the Potency was inconclusive: 8.91 µM [inhibitor, partial curve].
In the case of `CC1(C)C(=O)NCCN1C(=O)c1ccc2nc(Cc3ccccc3F)oc2c1`, the Potency is reported as inconclusive: 35.5 µM [inhibitor, single point].
In the case of `Cc1ccc(/C=N/N2CCN(Cc3ccc(Cl)cc3)CC2)o1`, the Potency is reported as inconclusive: 35.5 µM [inhibitor, single point].
